Residue numbers refer to the chain shown, from its start.
B1: SS002 (fusion protein of wild-type SIRPα truncated domain and human IgG1-Fc) (Fc fusion)
chain: ELQVIQPDKSVLVAAGETATLRCTATSLIPVGPIQWFRGAGPGRELIYNQKEGHFPRVTTVSDLTKRNNMDFSIRIGNITPADAGTYYCVKFRKGSPDDVEFKSGAGTELSVRAKPS[letters of human IgG1 Fc omitted]
notes: The order (SIRPα N-terminal of Fc) comes from the general description
B2: SS002m12N (SIRPα variant m12N - IgG1-Fc fusion protein) (Fc fusion)
chain: B1 chain with L12V, I29F, E45I, Q50R, K51R, E52Q, N78A, V100I
notes: No linker is stated
B3: SS002m5N (SIRPα variant m5N - IgG1-Fc fusion protein) (Fc fusion)
chain: B1 chain with I29V, E45N, Q50S, K51R, E52H, N78A
notes: No linker is stated
B4: SS002m82N (SIRPα variant m82N - IgG1-Fc fusion protein) (Fc fusion)
chain: B1 chain with I29F, D63H, L64S, G77H, N78A, V100S
notes: No linker is stated
B5: SS002m91N (SIRPα variant m91N - IgG1-Fc fusion protein) (Fc fusion)
chain: B1 chain with I29L, E45Q, E52D, V61A, R75N, N78A, V100I
notes: No linker is stated
B6: SS002m84N (SIRPα variant m84N - IgG1-Fc fusion protein) (Fc fusion)
chain: B1 chain with I29F, D63H, L64S, K66R, G77H, N78A, V100S
notes: No linker is stated

Biological target: T1, CD47 on the surface of Raji cells and A549 cells (UniProt Q08722)
T1 construct: whole, on cells; Raji and A549 are human cell lines; also called CD47 molecules on the surface of tumor cells
Assay: flow cytometry on Raji cells, PE anti-human IgG Fc secondary antibody

| EC50 (read off the curve) [µg/mL] | Binder |
| --- | --- |
| ~0.4 | B1 |
| ~0.05 | B2 |

Biological target: T1, CD47 on the surface of Raji cells and …
Assay: flow cytometry on A549 cells, PE anti-human IgG Fc secondary antibody

| EC50 (read off the curve) [µg/mL] | Binder |
| --- | --- |
| ~0.2 | B2 |

Biological target: T2, His-CD47 (CD47 Protein, Human, Recombinant (ECD, His Tag), SinoBiological) (human, UniProt Q08722 fragment, limits assumed)
T2 construct: extracellular domain; Bought reagent; also called target antigen His-CD47; not shown: His tag
Assay: SPR Biacore T200, fusion protein captured by anti-human Fc, His-CD47 as analyte, 1:1 model

| Kd [nM] | koff [s⁻¹] | kon [M⁻¹ s⁻¹] | Binder |
| --- | --- | --- | --- |
| 19.5 | 0.00639 | 327000 | B1 |
| 13.4 | 0.00445 | 333000 | B2 |
| 19.9 | 0.00646 | 324000 | B3 |
| 10.8 | 0.00278 | 257000 | B4 |
| 4.23 | 0.000829 | 196000 | B5 |
| 9.18 | 0.00209 | 227000 | B6 |

— patent publication US20250026806A1 (HANGZHOU SUMGEN BIOTECH, published 2025)
